Screen size: about 48,000 compounds; about 120 (0.25%) were called active. Another 4% or so got no clear call; they are omitted. Calls follow the shape of the dose curve; as a rule, active = well fitted activation curve with a large enough effect; inconclusive = small, poorly fitted or top-dose-only effect, or another doubt; inactive = no such curve, though single readings can be large or run the other way. Some of the results follow.

We go through 47 compounds from PubChem BioAssay AID1508624 (National Center for Advancing Translational Sciences (NCATS), 2021).

A short description of the test: Primary qHTS for Identification of Small Molecule Activators of Huntingtin-Antisense Promoter Activity. Also: nearly all actives have a fitted effect of over 55% in size. The conditions noted are these: HEK293 HTT-AS promoter firefly luciferase reporter (activity 0% = vehicle and -100% = no light), 24 h; series mostly up to 57.5 µM; activity change, positive = activation: at the top concentration. The essentials:
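Luminescence was read after Dual-Glo reagent and a 10 min room-temperature incubation. Values were normalized to vehicle (0% activity) and zero RLU (-100% activity). Reporter HEK293 cells had been exposed to compounds (up to 57.5 uM final) for 24 h.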
A general note: Quantitative high-throughput screening tests each substance at several concentrations.
`Cc1ccc2nc3c(cc(C(=O)NCC4CCCO4)c(=N)n3C(C)C)c(=O)n2c1` (configuration not stated): the “activity change, positive = activation” value is inactive: 10.3%.
As to `COc1ccccc1NC(=O)C(=O)NCC(c1ccc2c(c1)OCO2)N1CCOCC1` (configuration not stated), the “activity change, positive = activation” value was inactive: -6.42%.
As for `COc1ccc(Cl)cc1NC(=O)Cc1ccc(NC(=O)N2CCCCc3ccccc32)cc1`, the “activity change, positive = activation” value was inactive: -11.3%.
Take `CN1C(=O)CC[C@H]1c1cccnc1`: the “activity change, positive = activation” value is inactive: -2.11%.
`CCOC(=O)c1ccccc1NC(=O)CSc1nc2cn(CC)nc2c(=O)n1Cc1ccc(Cl)cc1`: the “activity change, positive = activation” value is inactive: -19.8%.
Take `Cc1ccc2c(c1)c1c(c(=O)n(-c3cccc(Cl)c3)c(=O)n1CC(=O)Nc1c(C)cccc1C)n2C`: the “activity change, positive = activation” value was inactive: -2.9%.
As to `Cc1ccc(CN2CCSc3ccc(C(=O)N4CCN(c5ccccc5)CC4)cc32)cc1`, the “activity change, positive = activation” value was inactive: -6.93%.
For the compound `COc1ccc(N2CCN(C(=O)C3CCN(S(=O)(=O)c4cccs4)CC3)CC2)cc1`, the “activity change, positive = activation” value was inactive: -23.1%.
Turning to `O=C(CC1N=C2c3ccccc3N=C(SCc3ccc(Cl)cc3)N2C1=O)NCc1cccs1` (configuration not stated), the “activity change, positive = activation” value was inactive: -8.68%.
With `CC(=O)O[C@]1(C(C)=O)CC[C@H]2[C@@H]3C=C(C)C4=CC(=O)CC[C@]4(C)[C@@H]3CC[C@@]21C`, the “activity change, positive = activation” value is inactive: -7.02%.
Turning to `O=c1c2cc3c(cc2n(Cc2ccc(Cl)cc2)c(=O)n1Cc1nc(-c2ccccc2)no1)OCO3`, the “activity change, positive = activation” value was inactive: -16.9%.
As to `Cc1ccc(O)c(C(CCN(C(C)C)C(C)C)c2ccccc2)c1` (configuration not stated), the “activity change, positive = activation” value is inactive: -3.41%.
As to `Cc1ccc(-n2c(Cc3ccccc3)nnc2SCc2nc(-c3cccs3)no2)cc1`, the “activity change, positive = activation” value is inactive: -31.1%.
Regarding `CCc1ccccc1NC(=O)Nc1c[nH]c(=O)[nH]c1=O`, the “activity change, positive = activation” value was inactive: -2.56%.
Turning to `COc1cc(C(=O)Oc2c(Sc3ccccc3)c(C)nn2-c2ccccc2)cc(OC)c1OC`, the “activity change, positive = activation” value is inactive: -35.1%.
With `Cc1ccc(/C=C/c2onc(C)c2S(=O)(=O)N2CCC(C(=O)Nc3ccc(C)c(N(C)C)c3)CC2)cc1`, the “activity change, positive = activation” value was inactive: -7.45%.
With `Cc1ccc(CNC(=O)CCCCCn2c(=O)[nH]c3ccccc3c2=O)cc1`, the “activity change, positive = activation” value was inactive: -5.12%.
The same measure for `Cc1nn(-c2ccccc2)c(OC(=O)C(C)C)c1Sc1ccc(Cl)cc1`: inactive: -15.7%.
For the compound `CC1CCCN(CCCNC(=O)c2ccc3c(c2)N(Cc2ccccc2F)C(=O)c2ccccc2S3(=O)=O)C1` (configuration not stated), the “activity change, positive = activation” value was inactive: -14%.
`Cc1ccccc1-c1nc(CN2CCC(C(=O)NCc3ccccc3Cl)CC2)c(C)o1`: the “activity change, positive = activation” value was inactive: -0.519%.
Take `Cc1cnc(-c2cc(N3CCN(C(=O)CCS(C)(=O)=O)CC3)ncc2Cl)c(C)c1`: the “activity change, positive = activation” value is inactive: -20.3%.
`CC(C)(C)c1ccc(NC(=O)C2CCCN(c3cnccn3)C2)cc1` (configuration not stated): the “activity change, positive = activation” value was inactive: 19%.
For the compound `CCc1nnc(NC(=O)CSc2nccn2-c2ccc(OC)cc2)s1`, the “activity change, positive = activation” value was inactive: -21.8%.
`CCn1c(C)c(C2N3CC4(C)CN2CC(C)(C3)C4=O)c2ccccc21` (configuration not stated): the “activity change, positive = activation” value was inactive: 14.3%.
As for `C/C(=N\O)[C@@H](C)NCC(C)(C)CN[C@H](C)/C(C)=N/O`, the “activity change, positive = activation” value is inactive: -14%.
With `CSc1ccc(CCNC(=O)c2cnc3c(C)cccn3c2=O)cc1`, the “activity change, positive = activation” value was inactive: 12.1%.
Take `CC(=O)c1cccc(-n2c(=O)c3c4c(sc3n(CC(=O)c3ccccc3)c2=O)CN(C(C)=O)CC4)c1`: the “activity change, positive = activation” value was inactive: -12.7%.
On to `Cc1nc(C)c(-c2ccc(SCC(=O)Nc3ccc(Br)cc3)nn2)s1`, for which the “activity change, positive = activation” value was inactive: -45.3%.
With `Cc1ccc(C)c(CN2C(=O)c3ccccc3S(=O)(=O)c3ccc(C(=O)N(C)C4CCCCC4)cc32)c1`, the “activity change, positive = activation” value was inactive: -33.3%.
The result for `CC(=O)c1cc2c(cc1N/C(=N/S(=O)(=O)c1ccc(Cl)cc1)c1ccc(F)cc1)OCO2` reads inactive: -15.6%; that for `CCc1ccc(NC(=O)c2ccc3c(O)c(S(=O)(=O)c4ccc(Cl)cc4)c(=O)[nH]c3c2)cc1`, inactive: 2.95%.
On to `Cc1cccc(OC(C)C(=O)Nc2ncn[nH]2)c1` (configuration not stated), for which the “activity change, positive = activation” value was inactive: 14.6%.
`CCCCN(CC)CCCNC(=O)c1sc2nc(C)cc(C)c2c1-n1cccc1`: the “activity change, positive = activation” value is inactive: -4.45%.
Consider `COc1ccc(CN(C(=O)COc2ccccc2OC)C2CCS(=O)(=O)C2)cc1` (configuration not stated), for which the “activity change, positive = activation” value is inactive: 18.3%.
In the case of `Cc1ccc(S(=O)(=O)N(CC(O)Cn2c3ccccc3c3ccccc32)c2cccc(C(N)=O)c2)cc1` (configuration not stated), the “activity change, positive = activation” value is inactive: -50.9%.
As for `CCN(CC)c1cc(C)c2cc(NC(=O)c3cccc(OC)c3)ccc2n1`, the “activity change, positive = activation” value is inactive: -13.5%.
The same measure for `CCOC(=O)C1CCCN(S(=O)(=O)c2ccc(F)c(C(=O)Nc3ccc(F)c(F)c3)c2)C1` (configuration not stated): inactive: -30.8%; for `Cc1cccc2nc(-c3ccco3)c(Nc3ccc4c(c3)OCO4)n12`: inactive: -23.8%; for `Cc1cc(C)c(NC(=O)Cn2c(=O)n(CC(=O)NCc3ccccc3Cl)c(=O)c3sccc32)c(C)c1`: inactive: 10.8%.
Turning to `CC(=O)c1cc2c(cc1N/C(=N/S(=O)(=O)c1ccc(C)cc1)c1ccccc1)OCO2`, the “activity change, positive = activation” value was inactive: -24.2%.
The result for `COC(=O)c1ccc(NC(=O)CCS(=O)(=O)c2ccc(Br)cc2)cc1` reads inactive: -23.4%.
In the case of `CCOC(=O)c1c(NC(=O)/C=C/c2ccc(OCC)cc2)sc(C)c1C`, the “activity change, positive = activation” value was inactive: -6.76%.
As for `COC(=O)C(NC(=O)CC(C)C)(Nc1nc2c(s1)CCCC2)C(F)(F)F` (configuration not stated), the “activity change, positive = activation” value is inactive: -8.22%.
In the case of `CCCCOc1ccc(C(=O)NCCS(=O)(=O)N2CCN(c3ccc(F)cc3)CC2)cc1`, the “activity change, positive = activation” value is inactive: -13.8%.
`CCOc1ccc(CNCc2c(C(=O)O)n(Cc3ccccc3F)c3cc(OC)ccc23)cc1`: the “activity change, positive = activation” value is inactive: -15%.
`COc1ccc(-c2cc(C(=O)O)n(Cc3ccccc3)n2)cc1`: the “activity change, positive = activation” value was inactive: -6.23%.
For the compound `COc1ccc(C(=O)NC2(C(F)(F)F)C(=O)NC(C)=C2C#N)cc1OC` (configuration not stated), the “activity change, positive = activation” value is inactive: -7.33%.
